Data reported in patent publication US20260209325A1, “SELECTIVE AND POTENT INHIBITORY ANTIBODIES OF MYOSTATIN ACTIVATION” (SCHOLAR ROCK, INC., priority 2022, published 2026).
Where a chain is given by its changes, count along the chain named.

Columns and labels:
[1] = target: T1, human pro-myostatin (Homo sapiens, UniProt O14793); experiment: Biacore 8k SPR binding affinity, human pro-myostatin
Description: (§1) The Biacore™ 8k SPR system was utilized to evaluate the binding affinity of myostatin antibodies to biotinylated human, murine, and cyno pro-myostatin. Biotin CAPture kit and sensor chips (Cytiva) were utilized in these experiments to immobilize the various antigens, followed by flowing a range of concentrations of each of the test antibodies.

[2] = target: murine pro-myostatin (Mus musculus, UniProt O08689); experiment: Biacore 8k SPR binding affinity, murine pro-myostatin
Description: as §1

[3] = target: cyno pro-myostatin (Macaca fascicularis, UniProt Q95J86); experiment: Biacore 8k SPR binding affinity, cyno pro-myostatin; design: species or system cynomolgus monkey
Description: as §1

[4] = target: T1, human pro-myostatin; experiment: SEC-MALS binding stoichiometry; details: for SEC-MALS Result: mass of complex
Protocol: A combination of size exclusion chromatography and multi-angle light scattering (SEC-MALS) was used to determine the approximate mass and therefore the oligomeric state of the antibodies and their stoichiometry of binding to human promyostatin. The monoclonal antibody (mAb) or its Fab fragment was mixed with 50 μg of human pro-myostatin at a ratio of 1:1, 2:1 or 3:1 (antibody to antigen) for at least 24 hours at room temperature for immune complexes to form, filtered and injected into an analytical SEC column (Waters HPLC with a Superdex 200 10/300), flowed through a refractive index detector and then a miniDAWN® multi-angle light scattering detector to determine the mass. A full-length human-pro-myostatin with an N-terminal His6 tag (SEQ ID NO: 941) was used to express pro-myostatin in HEK cells. The signal peptide present in the construct is cleaved during biosynthesis. The resulting recombinant human pro myostatin was purified using the His6 tag (SEQ ID NO: 941) and used for the experiment.

[5] = dexamethasone-induced muscle atrophy mouse model; type: in vivo; details: dexamethasone treated mice, second experiment (FIG. 9)
Description: To evaluate in vivo efficacy of the novel myostatin-selective inhibitors disclosed herein, the ability of the antibodies to preserve lean muscle mass was examined in a dexamethasone-induced atrophy mouse model. An excess of glucocorticoids directly stimulates myostatin production via interactions with a glucocorticoid response element in the myostatin promoter, thus inducing loss of muscle mass. As shown herein, antibodies of the disclosure prevented glucocorticoid-induced muscle atrophy.
C57BL6 male mice (n=8) at 13-14 weeks of age were given normal drinking water or water containing dexamethasone at a concentration of 2.5 mg/kg (17.5 grams dexamethasone per liter of drinking water) to induce atrophy. […] Body weight was measured daily. Body composition was measured by qNMR to determine lean mass pre-dosing, at day 7, and at day 14. After 14 days of dexamethasone exposure, the animals were terminated, and body weight and gastrocnemius weight were measured. Terminal blood for each animal was also collected.
C57BL6 male mice (n=8) at 13-14 weeks of age were given normal drinking water or water containing dexamethasone at a concentration of 2.5 mg/kg to induce atrophy. Mice were dosed at day 1 and day 7 with vehicle (PBS), IgG control (“hIgG”) or different doses of the test antibodies, as shown in Table 13. Muscle mass at days −1, 6 and 13 was measured using qNMR. At the end of the study (day 14), serum from each animal was collected and changes in body weight, body composition (qNMR), left and right gastrocnemius weight, and left and right quadriceps weight were measured. Statistical analysis was performed by ANOVA (Dunnett's multiple comparison test).
In a third experiment, antibody doses ranging from 0.3 mg/kg to 10 mg/kg were compared for their effectiveness in attenuating dexamethasone-induced atrophy. C57BL6 male mice (n=8) at 13-14 weeks of age were given normal drinking water or water containing dexamethasone at a concentration of 2.5 mg/kg to induce atrophy. Mice were dosed at day 1 and day 7 with vehicle (PBS), human IgG control (“hIgG”) or different doses of the test antibodies, as shown in Table 14 below. qNMR was used to measure muscle mass at days −1, 6 and 13. At day 14 the study ended, serum was collected and changes in body composition (qNMR), left and right gastrocnemius weight, and left and right quadriceps weight were determined. Circulating myostatin was measured in the serum of a terminal bleed taken at day 14. Statistical analysis was performed by ANOVA (Dunnett's multiple comparison test).
In a fourth experiment, antibodies Ab109 and Ab133 were compared to control human IgG and Ab2 in the same protocol as described above.

B1: Ab112: anti-pro/latent myostatin antibody; CDR sequences in Table 2d (antibody)
heavy: QVQLVQSGAEVKKPGASVKVSCKVSGGTFGIYAIHWVRQAPGKGLEWMGGTIPVFGTAIYAQKFQGRVTMTEDTSTDTAYMELSSLKSEDTAVYYCASLTGIAAAGTHPARGGMDVWGQGTTVTVSSASTKGPSVFPLAPCSRSTSESTAALGCLVKDYFPEPVTVSWNSGALTSGVHTFPAVLQSSGLYSLSSVVTVPSSSLGTKTYTCNVDHKPSNTKVDKRV[human IgG4 Fc with S228P (EU numbers) left out]
light: DIQMTQSPSSVSASVGDRVTITCRASPSISSYLAWYQQKPGKAPKLLIYAASRLQSGVPSRFSGSGSGTDFTLTISSLQPEDFANYYCQEYLSFPLTFGGGTKVEIKRTVAAPSVFIFPPSDEQLKSGTASVVCLLNNFYPREAKVQWKVDNALQSGNSQESVTEQDSKDSTYSLSSTLTLSKADYEKHKVYACEVTHQGLSSPVTKSFNRGEC
In the case of B1, the “Ka” value [1] is reported as 217000 M⁻¹ s⁻¹, the “Kd (1/s)” value [1] is reported as 0.000122 s⁻¹ and the “Ka” value [2] is reported as 251000 M⁻¹ s⁻¹. For the same molecule, the “Kd (1/s)” value [2] was 0.000188 s⁻¹, the “Ka” value [3] was 207000 M⁻¹ s⁻¹ and the “Kd (1/s)” value [3] was 0.000124 s⁻¹. For the same molecule, the “MALS observed molecular weight of Fab:pro-myostatin complex” value ([4]; Fab fragment) was 186.5 kDa, the “SEC-MALS Result” value ([4]; Fab fragment, input ratio Fab:pro-myostatin 2:1) was 176.9 kDa and the “SEC-MALS Result” value ([4]; Fab fragment, input ratio Fab:pro-myostatin 3:1) was 180.9 kDa. The “binding stoichiometry mAb:pro-myostatin” value ([4]; full-length mAb) was “large poly-daisy chains”, the “Stoichiometry By MALS (mAb:pro-myostatin) Main peak” value ([4]; full-length mAb, main peak) was “Poly” and the “SEC-MALS Result” value ([4]; full-length mAb, input ratio mAb:pro-myostatin 1:1) was 2,519 kDa. For the same molecule, the “SEC-MALS Result” value ([4]; full-length mAb, input ratio mAb:pro-myostatin 3:1) was 699.6 kDa and the “prevention of muscle atrophy” value [5] was “less effective in preventing muscle-induced atrophy than Ab109 and Ab127”.

B2: Ab114: anti-pro/latent myostatin antibody; CDR sequences in Table 2d (antibody)
heavy: QVQLVQSGAEVKKPGASVKVSCKVSGGTFRSYTIHWVRQAPGKGLEWMGGMNPSSGHTIYAQKFQGRVTMTEDTSTDTAYMELSSLKSEDTAVYYCARGLDYGEGYYYYGMDVWGQGTTVTVSSASTKGPSVFPLAPCSRSTSESTAALGCLVKDYFPEPVTVSWNSGALTSGVHTFPAVLQSSGLYSLSSVVTVPSSSLGTKTYTCNVDHKPSNTKVDKRV[human IgG4 Fc with S228P (EU numbers) left out]
light: DIQMTQSPSSVSASVGDRVTITCRASQGISESLAWYQQKPGKAPKLLIYSASSLESGVPSRFSGSGSGTDFTLTISSLQPEDFANYYCQQGYSSPPYTFGGGTKVEIKRTVAAPSVFIFPPSDEQLKSGTASVVCLLNNFYPREAKVQWKVDNALQSGNSQESVTEQDSKDSTYSLSSTLTLSKADYEKHKVYACEVTHQGLSSPVTKSFNRGEC
For B2, the “Ka” value [1] was 4.23e+06 M⁻¹ s⁻¹, the “Kd (1/s)” value [1] was 0.00735 s⁻¹ and the “Ka” value [2] was 3.31e+06 M⁻¹ s⁻¹. The “Kd (1/s)” value [2] was 0.0208 s⁻¹, the “Ka” value [3] was 3.49e+06 M⁻¹ s⁻¹ and the “Kd (1/s)” value [3] was 0.00908 s⁻¹.

B3: Ab115: anti-pro/latent myostatin antibody; CDR sequences in Table 2d (antibody)
heavy: QVQLVQSGAEVKKPGASVKVSCKVSGYAFTNYNIHWVRQAPGKGLEWMGGINPRTGGTIYAQKFQGRVTMTEDTSTDTAYMELSSLKSEDTAVYYCAKDIYTGVAVAGSGMDYWGQGTLVTVSSASTKGPSVFPLAPCSRSTSESTAALGCLVKDYFPEPVTVSWNSGALTSGVHTFPAVLQSSGLYSLSSVVTVPSSSLGTKTYTCNVDHKPSNTKVDKRV[human IgG4 Fc with S228P (EU numbers) left out]
light: DIQMTQSPSSVSASVGDRVTITCRASQGISTHLAWYQQKPGKAPKLLIYGASNLESGVPSRFSGSGSGTDFTLTISSLQPEDFANYYCQQANSFPWTFGGGTKVEIKRTVAAPSVFIFPPSDEQLKSGTASVVCLLNNFYPREAKVQWKVDNALQSGNSQESVTEQDSKDSTYSLSSTLTLSKADYEKHKVYACEVTHQGLSSPVTKSFNRGEC
For B3, the “Ka” value [1] was 406000 M⁻¹ s⁻¹, the “Kd (1/s)” value [1] was 0.00123 s⁻¹ and the “Ka” value [2] was 450000 M⁻¹ s⁻¹. For the same molecule, the “Kd (1/s)” value [2] was 0.00137 s⁻¹, the “Ka” value [3] was 443000 M⁻¹ s⁻¹ and the “Kd (1/s)” value [3] was 0.00139 s⁻¹.

B4: Ab129: anti-pro/latent myostatin antibody; CDR sequences in Table 2d (antibody)
heavy: QVQLVQSGAEVKKPGASVKVSCKVSGFNYPRSAIHWVRQAPGKGLEWMGGINPSGEATIYAQKFQGRVTMTEDTSTDTAYMELSSLKSEDTAVYYCARDSSPQWLVTAGVYFYGMDVWGQGTTVTVSSASTKGPSVFPLAPCSRSTSESTAALGCLVKDYFPEPVTVSWNSGALTSGVHTFPAVLQSSGLYSLSSVVTVPSSSLGTKTYTCNVDHKPSNTKVDKRV[human IgG4 Fc with S228P (EU numbers) left out]
light: B1 light with P27Q, S31N, Y32W, A50H, R53T, E90Q, L92S, F94T, L96W
For B4, the “Ka” value [1] was 140000 M⁻¹ s⁻¹, the “Kd (1/s)” value [1] was 0.000307 s⁻¹ and the “Ka” value [2] was 117000 M⁻¹ s⁻¹. For the same molecule, the “Kd (1/s)” value [2] was 0.000496 s⁻¹, the “Ka” value [3] was 411000 M⁻¹ s⁻¹ and the “Kd (1/s)” value [3] was 0.000534 s⁻¹.

B5: Ab138: anti-pro/latent myostatin antibody; CDR sequences in Table 2d (antibody)
heavy: EVQLVESGGGLVQPGGSLRLSCAASGFTFTSYGMSWVRQAPGKGLELVASITGSKGETYYPDSVKGRFTISRDNAKNSLYLQMNSLRAEDTAVYYCARDLLVRFLEWSHYYGMDVWGQGTTVTVSSASTKGPSVFPLAPCSRSTSESTAALGCLVKDYFPEPVTVSWNSGALTSGVHTFPAVLQSSGLYSLSSVVTVPSSSLGTKTYTCNVDHKPSNTKVDKRV[human IgG4 Fc with S228P (EU numbers) left out]
light: DIVMTQSPLSLPVTPGEPASISCRSSQSLLHSSGHNFLHWYLQKPGQSPQLLIYETSNRAPGIPDRFSGSGSGTDFTLKISRVEAEDVGVYYCQQATQFPRPFGGGTKVEIKRTVAAPSVFIFPPSDEQLKSGTASVVCLLNNFYPREAKVQWKVDNALQSGNSQESVTEQDSKDSTYSLSSTLTLSKADYEKHKVYACEVTHQGLSSPVTKSFNRGEC
In the case of B5, the “Ka” value [1] is reported as 5.27e+06 M⁻¹ s⁻¹ and the “Kd (1/s)” value [1] is reported as 0.000577 s⁻¹.

B6: Ab139: anti-pro/latent myostatin antibody; CDR sequences in Table 2d (antibody)
heavy: EVQLVESGGGLVQPGGSLRLSCAASGFTFSSYGMSWVRQAPGKGLELVASFTGSGAAYYPDSVKGRFTISRDNAKNSLYLQMNSLRAEDTAVYYCARDLLIRFLEWSHYYGMDVWGQGTTVTVSSASTKGPSVFPLAPCSRSTSESTAALGCLVKDYFPEPVTVSWNSGALTSGVHTFPAVLQSSGLYSLSSVVTVPSSSLGTKTYTCNVDHKPSNTKVDKRV[human IgG4 Fc with S228P (EU numbers) left out]
light: B5 light with T56S, A60V, P61S, I63V, A96Q, F99Y, R101P, P102T
For B6, the “Ka” value [1] was 1.9e+07 M⁻¹ s⁻¹ and the “Kd (1/s)” value [1] was 0.0023 s⁻¹.

B7: Ab140: anti-pro/latent myostatin antibody; CDR sequences in Table 2d (antibody)
heavy: B6 heavy with A56G, A57T, L99N
light: B5 light with T56V, A60E, P61S, I63V, A96Q, F99Y, R101P, P102T
In the case of B7, the “Ka” value [1] is reported as 6.53e+06 M⁻¹ s⁻¹ and the “Kd (1/s)” value [1] is reported as 0.000711 s⁻¹.
